Results: patent US20250101135A1 (Hoffmann-La Roche, published 2025)
Substitutions are numbered along the chain they refer to. Blank lines part the entries; values can stand above or below the binder they belong to.

What was measured:
[1] = target: T1, human 4-1BB (CD137) on cells (human, UniProt Q07011 24-255); experiment: flow cytometry on activated human PBMC, 4-1BB+ CD3+CD8+ T cells
T1 construct: whole, on cells; also called 4-1BB+CD8+; 4-1BB+CD4+

[2] = target: T2, human fibroblast activation protein (FAP) on cells (human, UniProt Q12884 1-760); experiment: flow cytometry on NIH/3T3-huFAP clone 39 cells
T2 construct: also called human FAP; huFAP

[3] = target: T1, human 4-1BB (CD137) on cells; experiment: flow cytometry on activated human PBMC, 4-1BB+ CD3+CD4+ T cells
[4] = target: T2, human fibroblast activation protein …; experiment: flow cytometry on FAP+ MV-3 cells
[5] = target: T2, human fibroblast activation protein …; experiment: flow cytometry on FAP+ WM-266-4 cells
[6] = target: T1, human 4-1BB (CD137) on cells; experiment: flow cytometry on activated human PBMC, 4-1BB+ CD8+ T cells
[7] = target: T1, human 4-1BB (CD137) on cells; experiment: flow cytometry on activated human PBMC, 4-1BB+ CD4+ T cells
[8] = target: T2, human fibroblast activation protein …; experiment: flow cytometry on FAP+ MV-3 cells; remark: listed apart in the source

EC50 [1]: 0.07 nM
EC50 [2]: 15 nM
EC50 [3]: 2.82 nM
B1: monovalent FAP(28H1)-targeted human 4-1BB ligand (71-254) trimer-containing Fc (kih) fusion molecule Construct 1.3 (Fc fusion)
chain 1: [no letters for about 200 residues]GGGGSGGGGSREGPELSPDDPAGLLDLRQGMFAQLVAQNVLLIDGPLSWYSDPGLAGVSLTGGLSYKEDTKELVVAKAGVYYVFFQLELRRVVAGEGSGSVSLALHLQPLRSAAGAAALALTVDLPPASSEARNSAFGFQGRLLHLSAGQRLGVHLHTEARARHAWQLTQGATVLGLFRVTPEIPAGLPSPRSEGGGGSGGGGSASTKGPSVFPLAPSSKSTSGGTAALGCLVEDYFPEPVTVSWNSGALTSGVHTFPAVLQSSGLYSLSSVVTVPSSSLGTQTYICNVNHKPSNTKVDEKV[no letters for human IgG1 Fc with changes]
chain 2: [no letters for about 200 residues][no letters for about 120 residues]
heavy: EVQLLESGGGLVQPGGSLRLSCAASGFTFSSHAMSWVRQAPGKGLEWVSAIWASGEQYYADSVKGRFTISRDNSKNTLYLQMNSLRAEDTAVYYCAKGWLGNFDYWGQGTLVTVSSASVAAPSVFIFPPSDEQLKSGTASVVCLLNNFYPREAKVQWKVDNALQSGNSQESVTEQDSKDSTYSLSSTLTLSKADYEKHKVYACEVTHQGLSSPVTKSFNRGECDKTHTCPPCPAPEAAGGPSVFLFPPKPKDTLMISRTPEVTCVVVDVSHEDPEVKFNWYVDGVEVHNAKTKPREEQYNSTYRVVSVLTVLHQDWLNGKEYKCKVSNKALGAPIEKTISKAKGQPREPQVCTLPPSRDELTKNQVSLSCAVKGFYPSDIAVEWESNGQPENNYKTTPPVLDSDGSFFLVSKLTVDKSRWQQGNVFSCSVMHEALHNHYTQKSLSLSPGK
light: EIVLTQSPGTLSLSPGERATLSCRASQSVSRSYLAWYQQKPGQAPRLLIIGASTRATGIPDRFSGSGSGTDFTLTISRLEPEDFAVYYCQQGQVIPPTFGQGTKVEIKSSASTKGPSVFPLAPSSKSTSGGTAALGCLVKDYFPEPVTVSWNSGALTSGVHTFPAVLQSSGLYSLSSVVTVPSSSLGTQTYICNVNHKPSNTKVDKKVEPKSC
notes: CH1-CL crossover in the anti-FAP Fab, charged residues on the 4-1BBL chains

EC50 [4]: 1.66 nM
EC50 [5]: 1.2 nM
EC50 [6]: 0.35 nM
EC50 [7]: 0.68 nM
B5: monovalent FAP(4B9)-targeted human 4-1BB ligand (71-248) containing Fc (kih) fusion molecule Construct 2.5 (Fc fusion)
chain 1: REGPELSPDDPAGLLDLRQGMFAQLVAQNVLLIDGPLSWYSDPGLAGVSLTGGLSYKEDTKELVVAKAGVYYVFFQLELRRVVAGEGSGSVSLALHLQPLRSAAGAAALALTVDLPPASSEARNSAFGFQGRLLHLSAGQRLGVHLHTEARARHAWQLTQGATVLGLFRVTPEIPAGLGGGGSGGGGSREGPELSPDDPAGLLDLRQGMFAQLVAQNVLLIDGPLSWYSDPGLAGVSLTGGLSYKEDTKELVVAKAGVYYVFFQLELRRVVAGEGSGSVSLALHLQPLRSAAGAAALALTVDLPPASSEARNSAFGFQGRLLHLSAGQRLGVHLHTEARARHAWQLTQGATVLGLFRVTPEIPAGLGGGGSGGGGSRTVAAPSVFIFPPSDEQLKSGTASVVCLLNNFYPREAKVQWKVDNALQSGNSQESVTEQDSKDSTYSLSSTLTLSKADYEKHKVYACEVTHQGLSSPVTKSFNRGE[no letters for human IgG1 Fc with changes]
chain 2: REGPELSPDDPAGLLDLRQGMFAQLVAQNVLLIDGPLSWYSDPGLAGVSLTGGLSYKEDTKELVVAKAGVYYVFFQLELRRVVAGEGSGSVSLALHLQPLRSAAGAAALALTVDLPPASSEARNSAFGFQGRLLHLSAGQRLGVHLHTEARARHAWQLTQGATVLGLFRVTPEIPAGLGGGGSGGGGSASTKGPSVFPLAPSSKSTSGGTAALGCLVKDYFPEPVTVSWNSGALTSGVHTFPAVLQSSGLYSLSSVVTVPSSSLGTQTYICNVNHKPSNTKVDKKVEPKSC
heavy: EVQLLESGGGLVQPGGSLRLSCAASGFTFSSYAMSWVRQAPGKGLEWVSAIIGSGASTYYADSVKGRFTISRDNSKNTLYLQMNSLRAEDTAVYYCAKGWFGGFNYWGQGTLVTVSSASTKGPSVFPLAPSSKSTSGGTAALGCLVKDYFPEPVTVSWNSGALTSGVHTFPAVLQSSGLYSLSSVVTVPSSSLGTQTYICNVNHKPSNTKVDKKVEPKSCDKTHTCPPCPAPEAAGGPSVFLFPPKPKDTLMISRTPEVTCVVVDVSHEDPEVKFNWYVDGVEVHNAKTKPREEQYNSTYRVVSVLTVLHQDWLNGKEYKCKVSNKALGAPIEKTISKAKGQPREPQVCTLPPSRDELTKNQVSLSCAVKGFYPSDIAVEWESNGQPENNYKTTPPVLDSDGSFFLVSKLTVDKSRWQQGNVFSCSVMHEALHNHYTQKSLSLSPGK
light: EIVLTQSPGTLSLSPGERATLSCRASQSVTSSYLAWYQQKPGQAPRLLINVGSRRATGIPDRFSGSGSGTDFTLTISRLEPEDFAVYYCQQGIMLPPTFGQGTKVEIKRTVAAPSVFIFPPSDEQLKSGTASVVCLLNNFYPREAKVQWKVDNALQSGNSQESVTEQDSKDSTYSLSSTLTLSKADYEKHKVYACEVTHQGLSSPVTKSFNRGEC
notes: crossed CH1-CL without charged residues

The next lines start with the binder.

B2: monovalent FAP(4B9)-targeted human 4-1BB ligand (71-248) containing Fc (kih) fusion molecule Construct 2.4 (Fc fusion)
chain 1: REGPELSPDDPAGLLDLRQGMFAQLVAQNVLLIDGPLSWYSDPGLAGVSLTGGLSYKEDTKELVVAKAGVYYVFFQLELRRVVAGEGSGSVSLALHLQPLRSAAGAAALALTVDLPPASSEARNSAFGFQGRLLHLSAGQRLGVHLHTEARARHAWQLTQGATVLGLFRVTPEIPAGLGGGGSGGGGSREGPELSPDDPAGLLDLRQGMFAQLVAQNVLLIDGPLSWYSDPGLAGVSLTGGLSYKEDTKELVVAKAGVYYVFFQLELRRVVAGEGSGSVSLALHLQPLRSAAGAAALALTVDLPPASSEARNSAFGFQGRLLHLSAGQRLGVHLHTEARARHAWQLTQGATVLGLFRVTPEIPAGLGGGGSGGGGSRTVAAPSVFIFPPSDRKLKSGTASVVCLLNNFYPREAKVQWKVDNALQSGNSQESVTEQDSKDSTYSLSSTLTLSKADYEKHKVYACEVTHQGLSSPVTKSFNRGE[no letters for human IgG1 Fc with changes]
chain 2: B5 chain 2 with K218E, K284E
heavy: B5 heavy
light: B5 light
notes: crossed CH1-CL with charged residues
EC50 [4]: 0.83 nM
EC50 [5]: 0.59 nM
EC50 [6]: 0.3 nM
EC50 [7]: 0.38 nM

B3: bivalent FAP(28H1)-targeted human 4-1BB ligand (71-254) trimer-containing Fc (kih) fusion molecule Construct 1.5 (Fc fusion)
heavy 1: EVQLLESGGGLVQPGGSLRLSCAASGFTFSSHAMSWVRQAPGKGLEWVSAIWASGEQYYADSVKGRFTISRDNSKNTLYLQMNSLRAEDTAVYYCAKGWLGNFDYWGQGTLVTVSSASTKGPSVFPLAPSSKSTSGGTAALGCLVKDYFPEPVTVSWNSGALTSGVHTFPAVLQSSGLYSLSSVVTVPSSSLGTQTYICNVNHKPSNTKVDKKVEPKSCDKTHTCPPCPAPEAAGGPSVFLFPPKPKDTLMISRTPEVTCVVVDVSHEDPEVKFNWYVDGVEVHNAKTKPREEQYNSTYRVVSVLTVLHQDWLNGKEYKCKVSNKALGAPIEKTISKAKGQPREPQVCTLPPSRDELTKNQVSLSCAVKGFYPSDIAVEWESNGQPENNYKTTPPVLDSDGSFFLVSKLTVDKSRWQQGNVFSCSVMHEALHNHYTQKSLSLSPGGGGGSGGGGSREGPELSPDDPAGLLDLRQGMFAQLVAQNVLLIDGPLSWYSDPGLAGVSLTGGLSYKEDTKELVVAKAGVYYVFFQLELRRVVAGEGSGSVSLALHLQPLRSAAGAAALALTVDLPPASSEARNSAFGFQGRLLHLSAGQRLGVHLHTEARARHAWQLTQGATVLGLFRVTPEIPAGLPSPRSEGGGGSGGGGSREGPELSPDDPAGLLDLRQGMFAQLVAQNVLLIDGPLSWYSDPGLAGVSLTGGLSYKEDTKELVVAKAGVYYVFFQLELRRVVAGEGSGSVSLALHLQPLRSAAGAAALALTVDLPPASSEARNSAFGFQGRLLHLSAGQRLGVHLHTEARARHAWQLTQGATVLGLFRVTPEIPAGLPSPRSE
heavy 2: EVQLLESGGGLVQPGGSLRLSCAASGFTFSSHAMSWVRQAPGKGLEWVSAIWASGEQYYADSVKGRFTISRDNSKNTLYLQMNSLRAEDTAVYYCAKGWLGNFDYWGQGTLVTVSSASTKGPSVFPLAPSSKSTSGGTAALGCLVKDYFPEPVTVSWNSGALTSGVHTFPAVLQSSGLYSLSSVVTVPSSSLGTQTYICNVNHKPSNTKVDKKV[no letters for human IgG1 Fc with changes]GGGGSGGGGSREGPELSPDDPAGLLDLRQGMFAQLVAQNVLLIDGPLSWYSDPGLAGVSLTGGLSYKEDTKELVVAKAGVYYVFFQLELRRVVAGEGSGSVSLALHLQPLRSAAGAAALALTVDLPPASSEARNSAFGFQGRLLHLSAGQRLGVHLHTEARARHAWQLTQGATVLGLFRVTPEIPAGLPSPRSE
light: B5 light with T30S, S31R, N50I, V51G, G52A, R54T, I93Q, M94V, L95I
notes: two anti-FAP Fabs; dimeric and monomeric 4-1BBL at the C-termini of hole and knob heavy chains
EC50 [1]: 0.17 nM
EC50 [2]: 10.1 nM
EC50 [8]: 0.53 nM
EC50 [3]: 2.67 nM

B4: bivalent FAP(4B9)-targeted human 4-1BB ligand (71-254) containing Fc (kih) fusion molecule Construct 2.3 (Fc fusion)
heavy 1: EVQLLESGGGLVQPGGSLRLSCAASGFTFSSYAMSWVRQAPGKGLEWVSAIIGSGASTYYADSVKGRFTISRDNSKNTLYLQMNSLRAEDTAVYYCAKGWFGGFNYWGQGTLVTVSSASTKGPSVFPLAPSSKSTSGGTAALGCLVKDYFPEPVTVSWNSGALTSGVHTFPAVLQSSGLYSLSSVVTVPSSSLGTQTYICNVNHKPSNTKVDKKVEPKSCDKTHTCPPCPAPEAAGGPSVFLFPPKPKDTLMISRTPEVTCVVVDVSHEDPEVKFNWYVDGVEVHNAKTKPREEQYNSTYRVVSVLTVLHQDWLNGKEYKCKVSNKALGAPIEKTISKAKGQPREPQVCTLPPSRDELTKNQVSLSCAVKGFYPSDIAVEWESNGQPENNYKTTPPVLDSDGSFFLVSKLTVDKSRWQQGNVFSCSVMHEALHNHYTQKSLSLSPGGGGGSGGGGSREGPELSPDDPAGLLDLRQGMFAQLVAQNVLLIDGPLSWYSDPGLAGVSLTGGLSYKEDTKELVVAKAGVYYVFFQLELRRVVAGEGSGSVSLALHLQPLRSAAGAAALALTVDLPPASSEARNSAFGFQGRLLHLSAGQRLGVHLHTEARARHAWQLTQGATVLGLFRVTPEIPAGLPSPRSEGGGGSGGGGSREGPELSPDDPAGLLDLRQGMFAQLVAQNVLLIDGPLSWYSDPGLAGVSLTGGLSYKEDTKELVVAKAGVYYVFFQLELRRVVAGEGSGSVSLALHLQPLRSAAGAAALALTVDLPPASSEARNSAFGFQGRLLHLSAGQRLGVHLHTEARARHAWQLTQGATVLGLFRVTPEIPAGLPSPRSE
heavy 2: EVQLLESGGGLVQPGGSLRLSCAASGFTFSSYAMSWVRQAPGKGLEWVSAIIGSGASTYYADSVKGRFTISRDNSKNTLYLQMNSLRAEDTAVYYCAKGWFGGFNYWGQGTLVTVSSASTKGPSVFPLAPSSKSTSGGTAALGCLVKDYFPEPVTVSWNSGALTSGVHTFPAVLQSSGLYSLSSVVTVPSSSLGTQTYICNVNHKPSNTKVDKKV[no letters for human IgG1 Fc with changes]GGGGSGGGGSREGPELSPDDPAGLLDLRQGMFAQLVAQNVLLIDGPLSWYSDPGLAGVSLTGGLSYKEDTKELVVAKAGVYYVFFQLELRRVVAGEGSGSVSLALHLQPLRSAAGAAALALTVDLPPASSEARNSAFGFQGRLLHLSAGQRLGVHLHTEARARHAWQLTQGATVLGLFRVTPEIPAGLPSPRSE
light: B5 light
EC50 [4]: 0.53 nM
EC50 [5]: 0.42 nM
EC50 [6]: 0.44 nM
EC50 [7]: 0.3 nM
